Laboratory results as given in the RNAGym collection of RNA variant scans (doi:10.1073/pnas.2313332121).
This sample is rich in variants without activity.

B1: TPR 5TU (parent)
chain: GGAUCUUCUCGAUCUAACAAAAAAGACAAAUCUGCCACAAAGCUUGAGAGCAUCUUCGGAUGCAGAGGCGGCAGCCUUCGGUGGCGCGAUAGCGCCAACGUUCUCAACUAUGACACGCAAAACGCGUGCUCCGUUGAAUGGAGUUUAUCAUG

Variants of: B1
Assay: polymerase ribozyme fitness, log enrichment relative to wild type (log ratio); higher = more active; in vitro selection for triplet polymerase activity
In short: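 Mutant libraries were PCR-built and transcribed for each subunit of a heterodimeric triplet polymerase ribozyme and selected for one round in triplicate at −7 °C, frozen, before gel excision of extended constructs and streptavidin-bead capture. Input and output libraries were Illumina-sequenced, keeping genotypes with ≥10 input reads and ≥1 read per output. Fitness is a logarithmic ratio of genotype to wild-type enrichment, in base 2, using inverse-variance-weighted replicate averages.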

Variant | polymerase ribozyme fitness (log ratio)
G46A A47C G50C C79G U109G G141C | ≤ -4.2
G46C C54A G74C C114U A121G | ≤ -4.2
G46C C69G C85A C129A | ≤ -4.2
G46A A73G C87G A122U | ≤ -4.2
G46A C57G U61G G86C C87A C114U C116U G141U | ≤ -4.2
G46A A47U A73U G86C G88A A106G | ≤ -4.2
G46A A52G C99G A138C C149U | ≤ -4.2
U45A U77C C131U | ≤ -4.2
U45A G50A C57G G84C C96U G143C U144A U145C | ≤ -4.2
G46C U78G C79A U144A | ≤ -4.2
A47G A49C | ≤ -4.2
U45A U101G G136A | ≤ -4.2
U45G U56G A66C A73G A107C G140U | ≤ -4.2
G46A A91C A120C A138U | ≤ -4.2
U45A G68C U78A C93A A107U | ≤ -4.2
A47C C69A C87U G100U A121G G143U | ≤ -4.2
U45A U61G C116U C123A | ≤ -4.2
A47G G50C C99A G140C G141C A147C | ≤ -4.2
U45C G48C A64C A122U U135G | ≤ -4.2
U45G U82A C95A C123G A150G | ≤ -4.2
U45G G50A C54U A120C G126C | ≤ -4.2

Variant | polymerase ribozyme fitness (log ratio)
G46C A47G G50C G71C C123U G141A U148C | ≤ -4.2
G46A G48C U61G C95G A120C | ≤ -4.2
G46A C51U U53A G74C G83U C103G G140A U145G | ≤ -4.2
A47U G84U | -1.78
G46U A98G | 0.0194
A47C A89U A150G | -1.84
A47C C63A G83A U90C A115C U145C | ≤ -4.2
A47U G50A G92A U145C | ≤ -4.2
A47U G81C C85G G86U C95U A106C G143A | ≤ -4.2
U45A U56A A73G C93G C105G A115G C123U | ≤ -4.2
G46U G68C G94C C116G A119G G124A | ≤ -4.2
U45C G140C | ≤ -4.2
U45C G71A A107C C108U | ≤ -4.2
G46U U78C C95U A110U U146A | ≤ -4.2
U45A G80U C105A G136A | ≤ -4.2
G46C A66U U82A C93U G141A | ≤ -4.2
A47U U55A C87G U146G A147C | ≤ -4.2
G46A U90G G94A G100U A115G A121U | ≤ -4.2
A47C A52C U53A C93A | ≤ -4.2
G46C C108U | ≤ -4.2
U45G G74C G84A C99U A107C C125G C129A | ≤ -4.2

Variant | polymerase ribozyme fitness (log ratio)
G46C U102G A106U G152A | ≤ -4.2
G46C G81A A107C | ≤ -4.2
U45A U56G G59U A66C C96A C116U | ≤ -4.2
U45C G46U A73G C87U A110G G133U A138G | ≤ -4.2
A47C U55A G68C A91C C95A C103U G140U | ≤ -4.2
G46A G65C C85U A89G U109G A138U G141A | ≤ -4.2
U45G A66G C76G C93G A98C A110G | ≤ -4.2
U45A U82A G84C G92U U139G | ≤ -4.2
A47U G48C A73G A89C G136A U146C U151G | ≤ -4.2
A47C G68C A89U C93A G126A G140U | ≤ -4.2
G46U G50A A64G C87G | ≤ -4.2
G46C A47C A52G G74A C85U C96U G152U | ≤ -4.2
G46A A52G G86U A91G A98U C114G | ≤ -4.2
A47G A52G C75U U78A U82C A91U C96G A98C | ≤ -4.2
U45C G59U U101G U102C | ≤ -4.2
G46A U53A C75G G133U | ≤ -4.2
G46C G50C G59U C118U G126C | ≤ -4.2
G46A G94C C116G G141A | ≤ -4.2
G46U A120C | -0.32
G46C C75A G92A C116A | ≤ -4.2
U45G C114U A119U | -2.4

Variant | polymerase ribozyme fitness (log ratio)
A47C G65U C85A C116G | ≤ -4.2
A47U G83C G94U C108U G126C A138C A142U C149U | ≤ -4.2
G46A C54A G94C G117A A122U G124A | -3.11
G46C C57U U61G C75G A119U G141A | ≤ -4.2
A47U G62A U127C G133U | ≤ -4.2
G46A A60U G83C G84U C96U G124U U134G U148G | ≤ -4.2
A47C U55A G71U G74C G84C U139G | ≤ -4.2
A47C G50U G58A G83U A97C C116A | ≤ -4.2
A47C A107U C108A | ≤ -4.2
U45A G46C C85G G88C C93U A115C A150G | ≤ -4.2
A47U C63G G74A G92A | ≤ -4.2
A47C G84U C85U U102C | ≤ -4.2
U45G A49U U55A C103G C125U | ≤ -4.2
G46A U77A A98G A110G A122U G126A | ≤ -4.2
A47G G100C C118G | ≤ -4.2
G46A U55C G59C U78G C96U | ≤ -4.2
U45A G50A A91U G92C A107C C118U | ≤ -4.2
A47C C51G C87U A89U A107G | ≤ -4.2
G46A G59U | 0.917
G46A A49G G86A G88A C116U U135C | ≤ -4.2
U45A G48A U53A C93A C103A C114U | ≤ -4.2
